In paper PMC4336329 (PLoS ONE, 2015):
In all, about 310,000 compounds went through this assay and about 2,200 (0.71%) showed an effect of 50% or more. Effects have a minus sign here. This is one part of the list.

Each compound was assayed against human ether-à-go-go-related gene (hERG) potassium channel (human, UniProt Q12809) (assay: primary screen, population patch clamp on CHO cells stably expressing hERG).
Sequence of human ether-à-go-go-related gene (hERG) potassium channel (Q12809 whole entry, looked up): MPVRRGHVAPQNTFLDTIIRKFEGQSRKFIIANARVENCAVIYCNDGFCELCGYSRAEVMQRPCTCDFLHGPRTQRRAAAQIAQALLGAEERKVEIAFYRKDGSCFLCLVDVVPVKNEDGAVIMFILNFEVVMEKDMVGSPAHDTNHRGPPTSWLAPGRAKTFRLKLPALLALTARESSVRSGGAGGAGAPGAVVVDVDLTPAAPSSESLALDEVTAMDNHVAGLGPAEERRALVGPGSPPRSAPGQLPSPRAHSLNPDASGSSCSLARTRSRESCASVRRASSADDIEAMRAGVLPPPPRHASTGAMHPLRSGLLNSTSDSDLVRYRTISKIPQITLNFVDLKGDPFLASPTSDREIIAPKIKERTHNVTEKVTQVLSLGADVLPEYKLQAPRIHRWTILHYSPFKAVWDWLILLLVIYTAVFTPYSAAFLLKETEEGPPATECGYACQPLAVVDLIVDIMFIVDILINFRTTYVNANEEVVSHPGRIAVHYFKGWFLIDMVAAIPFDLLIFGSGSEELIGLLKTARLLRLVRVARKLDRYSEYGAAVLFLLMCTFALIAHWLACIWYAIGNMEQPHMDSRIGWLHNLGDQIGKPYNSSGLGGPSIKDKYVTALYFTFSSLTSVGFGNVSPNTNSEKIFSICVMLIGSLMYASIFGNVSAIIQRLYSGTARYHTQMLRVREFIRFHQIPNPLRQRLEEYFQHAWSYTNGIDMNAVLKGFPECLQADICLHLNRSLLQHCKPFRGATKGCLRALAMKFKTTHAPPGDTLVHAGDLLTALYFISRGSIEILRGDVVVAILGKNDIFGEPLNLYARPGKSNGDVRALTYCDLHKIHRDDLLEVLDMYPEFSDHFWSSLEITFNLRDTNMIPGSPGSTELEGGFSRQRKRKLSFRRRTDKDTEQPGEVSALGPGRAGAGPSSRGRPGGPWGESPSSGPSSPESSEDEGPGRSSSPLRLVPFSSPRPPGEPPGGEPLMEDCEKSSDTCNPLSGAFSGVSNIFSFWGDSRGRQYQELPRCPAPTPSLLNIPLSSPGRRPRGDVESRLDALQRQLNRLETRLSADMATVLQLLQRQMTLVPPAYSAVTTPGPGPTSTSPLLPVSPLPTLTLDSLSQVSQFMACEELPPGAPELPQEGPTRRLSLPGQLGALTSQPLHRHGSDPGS

Row | SMILES | hERG current change (%, negative = inhibition) at 1uM
1 | c1ccc(-c2cc3c(N4CCCCC4)ncnc3s2)cc1 | 8.64%
2 | COc1ccc(C2C(C(=O)NCc3cccnc3)c3ccccc3C(=O)N2C)cc1OC (stereo not drawn) | 8.59%
3 | O=C(NC1CCCCC1)C(c1ccc(F)cc1)N(CCCN1CCOCC1)C(=O)c1ccc(CN2CCOCC2)o1 (stereo not drawn) | 10.3%
4 | O=C(O)C1=C[C@@H](c2csc3ccccc23)C[C@@H](OCc2ccc(CO)cc2)O1 | 15.6%
5 | O=C(NNC(=O)C1CCN(c2ncccn2)CC1)c1ccc(F)cc1 | 20.6%
6 | CCn1ccnc1CN1CCCC(C(=O)c2cc(F)ccc2OC)C1 (stereo not drawn) | -3.46%
7 | COc1ccc(CSc2nnc(C)n2N)cc1 | 4.22%
8 | COc1ccccc1CC(=O)NCCc1ccccc1 | 12.8%
9 | CCC(CO)Nc1nc(CN2CCCCC2)nc2scc(-c3ccccc3)c12 (stereo not drawn) | -10.9%
10 | O=[N+]([O-])c1ccc(S(=O)(=O)N(CC(O)CN2CCCCC2)c2ccccc2)cc1 (stereo not drawn) | -80.4%
11 | Cc1cc(C)cc(C(=O)Nc2cccnc2Cl)c1 | 6.12%
12 | O=c1[nH]c(=O)n(Cc2ccc(F)cc2)c(O)c1C=NCCN1CCCCC1 | 0.929%
13 | Cc1cc(NC(=O)CSc2nc(=O)n(CCN(C)C)c3c2CCCC3)no1 | 8.04%
14 | CCC(=O)c1ccc(OCC(=O)OCC(=O)NCC2CCCO2)cc1 (stereo not drawn) | 12.2%
15 | CCc1ccc(N2C(=O)C3CCCN3C2=S)cc1 (stereo not drawn) | 14.2%
16 | CC(C)c1ccc(NC(=S)N2CCCC2)cc1 | 9.07%
17 | COc1ccc(NC(=O)CC(NCc2ccccn2)C(=O)O)cc1 (stereo not drawn) | 9.59%
18 | Cc1cc(C(=O)NC2CC(C)(C)Cc3c2cnn3-c2cccc(F)c2)n(C)n1 (stereo not drawn) | 3.12%
19 | CS(=O)(=O)c1ccc(-c2nnn(CC(=O)N3CCCCC3)n2)cc1 | 14.4%
20 | CN(C(=O)c1cnc2n(c1=O)CCS2)C1CCCCC1 | 15.2%
21 | CCOC(=O)C1CCCN(c2c(NCC3CCCO3)c(=O)c2=O)C1 (stereo not drawn) | 15.4%
22 | CCCC(C)n1[nH]c(=O)c2c1NC(=O)CSC2c1ccc(OC)c(OC)c1 (stereo not drawn) | 23.3%
23 | COc1cc(C#Cc2c(-c3cncn3C)n(C)c3ccc(-c4ccc(OC)c(OC)c4)cc23)cc(OC)c1 | 9.82%

Row | SMILES | hERG current change (%, negative = inhibition) at 1uM
24 | Cc1ccc(CCC(=O)Nc2ccc([N+](=O)[O-])cc2)o1 | 15.8%
25 | CC(=O)Nc1ccc(N2C(C(C)=O)=NN(c3ccc(Cl)cc3)C2c2sccc2C)cc1 (stereo not drawn) | 9.38%
26 | COc1ccc(C2=Nn3c(nnc3-c3ccccc3)SC2)cc1OC | 16.4%
27 | Cc1ccc2c(c1)C1CN(C)CCC1N2C(=O)c1ccco1 (stereo not drawn) | 3.6%
28 | Cc1ccc(/C=N/NC(=O)Cn2cncn2)cc1 | 17.2%
29 | O=C(CSc1n[nH]c(-c2ccccc2)n1)c1ccccc1 | 12.4%
30 | Cc1nc([N+](=O)[O-])c(C(=O)OCc2ccccc2)n1C | 11.6%
31 | CCCC(NC(=O)Cc1c(C)c2cc3c(C)c(C)oc3c(C)c2oc1=O)C(=O)N[C@@H](Cc1ccccc1)C(=O)O (stereo partly drawn) | 0.847%
32 | CCOC(=O)CNC(=O)CN1C(=O)CCS(=O)(=O)c2ccccc21 | 11.8%
33 | CC1=NN(c2ccccc2)C(=O)/C1=C\c1sccc1C | 1.72%
34 | O=C(COc1ccc2c(c1)C(=O)CC1(CCCCC1)O2)NCc1ccccc1 | 1.9%
35 | COc1cc(/C=C/C(=O)c2ccccc2O)cc(OC)c1OC | 12.3%
36 | CCOC(=O)N1CCC(N2Cc3cccc(C(=O)NCc4ccccc4OC)c3C2=O)CC1 | -25.1%
37 | CCn1c(=O)cc(OCC(=O)Nc2ccccc2N2CCN(C)CC2)c2ccccc21 | -11.4%
38 | Nn1cc(-c2ccccc2)nc1SCC(=O)NCCc1ccccc1 | 4.46%
39 | CCCCc1cc(=O)oc2cc(C)cc(OCC(=O)NCc3ccccn3)c12 | -10.4%
40 | COc1ccc(/C=C/C(=O)c2c(O)cc(C)oc2=O)c(OC)c1 | 2.14%
41 | N#Cc1cccc(CSc2ncnc(N)n2)c1 | 19.4%
42 | O=C(CC1SCCNC1=O)Nc1ccccc1Cl (stereo not drawn) | 7.37%
43 | N=C1C(c2nc3ccccc3s2)=C(O)CN1Cc1ccco1 | 8.72%
44 | NC(=O)c1ccc[n+](Cc2ccccc2)c1.[I-] | 4.8%
45 | Cc1ccc(NS(=O)(=O)c2ccc(Cl)c(C(=O)Nc3ccccc3-c3nc4ccccc4[nH]3)c2)cc1C | 18%
46 | CCN(Cc1ccccc1)S(=O)(=O)CCNC(=O)c1ccc(OC)cc1 | 10.4%

Row | SMILES | hERG current change (%, negative = inhibition) at 1uM
47 | O=C(N/N=C/c1ccccc1C(=O)O)c1ccc(COc2cccc3cccnc23)cc1 | 3.16%
48 | CC(=O)Nc1scc(-c2ccccc2)[n+]1-c1ccc(C)cc1.[Br-] | 15.5%
49 | CCCCCCNC(=O)c1c(O)c2ccccc2[nH]c1=O | 16.7%
50 | Cc1ccc(S(=O)(=O)c2c(C)nn(C(C)(C)C)c2OC(=O)C(C)C)cc1 | 6.09%
51 | COCCC(=O)N1CCC(Oc2ccc(C(=O)N(C)Cc3cc(C)no3)cc2)CC1 | 11%
52 | Cc1nc(SCC(=O)NCc2ccc3c(c2)OCO3)c(C#N)c2c1CCCC2 | 2.38%
53 | CC(C)CN(C1CCS(=O)(=O)C1)S(=O)(=O)c1ccc(C(C)C)cc1 (stereo not drawn) | 0.473%
54 | O=C(c1cc(-c2ccc(Br)cc2)on1)N1CCCCCC1 | 11.5%
55 | Cc1cc(C)cc(NC(=S)NCCN(C2CCCCC2)C2CCCC2)c1 | -59.7%
56 | Cc1ccc(-n2nc3c(=O)n(CC(=O)NCc4ccccn4)nc(C)c3c2C)cc1 | 8.87%
57 | NC(=O)c1ccc([N+](=O)[O-])cc1SCc1ccccc1 | 9.07%
58 | COc1cc(C(=O)NCC2(c3ccccc3)CCCC2)cc(OC)c1OC | 6.99%
59 | CCCCOc1ccc(C(C)NC(=O)CCS(=O)(=O)Cc2ccccc2F)cc1 (stereo not drawn) | 8.41%
60 | COC(=O)C1=C(c2cccc(C#N)c2)C[C@@H]2CC[C@H]1N2C(=O)NCc1ccc(F)cc1 | 10.4%
61 | Cc1nc(-c2cccc(NC(=O)Cc3ccccc3)c2)cs1 | 6.93%
62 | S=C(NCCc1ccccc1)Nc1nccs1 | 6.27%
63 | Nc1ccc(CC2SC(=O)NC2=O)cc1 (stereo not drawn) | 9.3%
64 | O=C(Nc1ccccc1)Nc1cccc(-c2nnco2)c1 | 17.9%
65 | Nc1cc(N)nc(SCC(=O)Nc2ccccc2)n1 | 7.86%
66 | Cc1cccc(-n2ncc3c(NCCCO)ncnc32)c1 | 14.5%
67 | CCOP(=O)(OCC)C(NC(=O)c1cccc([N+](=O)[O-])c1)C(Cl)(Cl)Cl (stereo not drawn) | 13%
68 | O=C(Cc1cccs1)NCCN1CCOCC1 | 12.3%
69 | CC(NC(=O)c1ccc(CS(C)(=O)=O)cc1)c1ccc(-n2ccnc2)cc1 (stereo not drawn) | 8.47%

Row | SMILES | hERG current change (%, negative = inhibition) at 1uM
70 | CC(C)(CO)NS(=O)(=O)c1ccc2c(c1)Cc1cc(S(=O)(=O)NC(C)(C)CO)ccc1-2 | 9.43%
71 | CCOCCCNC(=O)CN1C(=O)c2ccccc2Sc2ncccc21 | 12.3%
72 | CCOC(=O)c1[nH]c2cc(OC)c(OC)cc2c1N | 11.4%
73 | O=C(OCc1ccccc1)/C(=C/c1cccc(Br)c1)NC(=O)c1ccco1 | -9.62%
74 | Cc1ccccc1-n1c(C)c(C#N)c(=O)c(-[n+]2ccccc2)c1[S-] | 12.5%
75 | COc1ccc(NC(=S)N2CCN(C(c3ccccc3)c3ccccc3)CC2)cc1OC | 4.63%
76 | O=C(Nc1cc([N+](=O)[O-])ccc1F)C1CC1 | 14.7%
77 | CCN1CCC(N2CCN(c3ccccc3OC)CC2)CC1 | 18.4%
78 | Cc1cccc(N=C(N2CCOCC2)P(=O)(N2CCOCC2)N2CCOCC2)c1 | 12.5%
79 | CCn1c(COc2cccc3cccnc23)nnc1SCC(=O)O | 4.82%
80 | CN(C)S(=O)(=O)c1cccc(C(=O)NCCNC(=O)c2cccc(S(=O)(=O)N(C)C)c2)c1 | 10.6%
81 | COc1ccc(/C=N/NC(=O)C(=O)Nc2ccccn2)cc1OC | 7.61%
82 | CCOC(=O)c1[nH]c2ccc(Br)cc2c1NC(=O)CCN1CCCC(C)C1 (stereo not drawn) | -66.8%
83 | COC(=O)C1=C(C)N2C(=O)CSC2=NC1c1ccc2c(c1)OCO2 (stereo not drawn) | -1.18%
84 | Cn1c(N)c(C(=O)COC(=O)CCC(=O)c2cccs2)c(=O)n(C)c1=O | 1.35%
85 | CCc1nn2c(=O)cc(COc3ccc(NC(=O)c4ccco4)cc3)nc2s1 | 7.74%
86 | Cc1ccccc1C(=O)N=c1sccn1C | 22.7%
87 | O=C(Cc1c(Cl)cccc1Cl)OCC(=O)N1CCc2ccccc2C1 | 8.9%
88 | CCOc1ccc(/C=C2\SC(=S)N(CCC(=O)Nc3ccccc3C(=O)O)C2=O)cc1 | 15.7%
89 | CC(C)c1nnc(NC(=O)C2CCCN2C(=O)Nc2cccc(Cl)c2)s1 (stereo not drawn) | 8%
90 | N#CC1(c2ccccc2)CCCN1C(=O)c1ccco1 (stereo not drawn) | 9.64%
